# “And” between values parts separate entries of the source, which are not always exact repeats. Equal values may be shown once.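 Method: 48-hour compound exposure of cells in 96-well plates, five concentrations, linear interpolation of endpoints. The concentration for 50% growth inhibition is given as GI50. Definition used: TGI = concentration required for complete inhibition of growth.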 The source made the active and inactive calls. No stated cut-off is given here; in the data, active means GI50 below about 0.43 µM; inactive means the rest. Peptide text beside a SMILES is read from it.
# Tested on: NCI-H322M lung
# Experiment: DTP human tumour cell line panel, 48 h
SMILES,TGI,GI50,outcome
CC(NC(=O)C(CC(=O)OCc1ccccc1)NC(=O)OCc1ccccc1)c1ccccc1 (stereo not given),> 100 µM,–,–
COC1(OC)C[C@H](C)[C@@]23O[C@]24C2=CC(=O)C=CC2=N[C@H]3C#C/C=C\C#C[C@]14O,2.44 µM,–,–
COc1cc(OC)cc(Oc2nc3cc(N)cc(N)c3nc2-c2ccccc2)c1,15.1 µM,2.26 µM,–
COc1cc2c3c(n(CCCN=[N+]=[N-])c(=O)c2cc1OC)-c1ccc(C#N)cc1C3=O,> 100 µM,> 100 µM,–
Nc1nc(N)nc(-c2ccccc2NS(=O)(=O)c2ccc([N+](=O)[O-])cc2)n1,> 100 µM,–,–
Cc1c(NC(=O)c2cc(C(N)=O)nc3cc(F)ccc23)c(C(F)(F)F)nn1Cc1ccc(C#N)cc1,31.2 µM,3.48 µM,–
O=c1c2cc(I)ccc2nc(-c2cccs2)n1-c1ccc(S(=O)(=O)Nc2nccs2)cc1,> 100 µM,> 100 µM,–
CCOC1=CP(=O)(OCC)CC(C)=C1Cl (stereo not given),> 100 µM,–,–
CC(=O)OC1C[C@@H](C)C2(C[C@H](O)c3ccoc3)C(=O)OC[C@]13C2CCC(O)C31CO1 (stereo not given in full),> 100 µM,–,–
COc1cc2c[n+]3ccc4cc(OC)c(OC)cc4c3cc2cc1O,> 100 µM,–,–
O=C1CNc2cc(N3CCN(c4ccccc4)CC3)ccc2N1,> 100 µM,–,–
Cc1ccc(C[N+](C)(C)N)cc1C,> 10 µM,–,–
OC(Cc1cccnc1)(c1ccccc1)c1ccccc1,> 100 µM,–,–
O=[N+]([O-])c1ccc(N=Nc2c(O)ccc3cc(S(=O)(=O)O)cc(S(=O)(=O)O)c23)cc1,> 100 µM,–,–
CCN(C1=CC(=O)NC2CCCCN12)c1ccccc1 (stereo not given),> 100 µM,–,–
CCC[CH2][Sn]([CH2]CCC)([O]C(=O)Cc1ccc(F)cc1)[O]C(=O)Cc1ccc(F)cc1,3.25 µM,1.61 µM,–
O=C1/C(=C/c2cccc(O)c2)COc2ccccc21,32.9 µM,–,–
Cc1ccnc(NS(=O)(=O)c2ccc(NC3=CC(=O)C(=O)c4ccccc43)cc2)n1,> 100 µM,–,–
CC1CC2=C(C(=O)O1)C(c1ccccc1)Nc1ccccc1N2 (stereo not given),> 100 µM,–,–
COc1ccc(C23c4ccc(OC)cc4CC2(c2ccc([N+](=O)[O-])cc2)Cc2cc(OC)ccc23)cc1 (stereo not given),> 100 µM,–,–
c1cc(N2CCCC2)c2nc(-c3[nH]ncc3Nc3ncnc4[nH]ccc34)[nH]c2c1,0.529 µM,0.0743 µM,–
Nc1nc(-c2cccc3ccccc23)cc2ccccc12,20.4 µM,0.912 µM,–
O=C1C=Cc2cscc21,> 100 µM,–,–
C[C@]12CC(c3ccccc3O1)C(C(N)=O)C(=O)N2 (stereo not given in full),> 100 µM,–,–

SMILES,TGI,GI50,outcome
COc1ccc(C2=NN(C(=O)c3ccc(Cl)cc3)C(O)(c3cc(F)c(Cl)cc3Cl)C2)cc1OC (stereo not given),> 100 µM,–,–
NCCCCC(NC(=O)OCc1ccccc1)C(=O)NCC(N)=O (stereo not given) (HELM PEPTIDE1{[O=C(OCc1ccccc1)[*:2]].[NCCCCC(N[*:1])C(=O)[*:2]].G.[am]}$$$$V2.0),> 100 µM,–,–
COC(=O)[C@@]12OC[C@]34[C@H]([C@@H](O)[C@@H]1O)[C@@]1(C)CC(=O)C(OC(C)=O)=C(C)[C@@H]1C[C@H]3OC(=O)[C@H](OC(=O)C=C(C)C)[C@@H]24,15.1 µM,–,–
C[C@H](CCC(=O)NN)[C@H]1CC[C@H]2[C@@H]3CC[C@@H]4C[C@H](O)CC[C@]4(C)[C@H]3CC[C@]12C,> 100 µM,–,–
COc1ccc2[nH]c3c(C)c4ccnc(NCCCN(C)CCCNc5ccc6nnn7c8ccccc8c(=O)c5c67)c4c(C)c3c2c1,2.18 µM,–,–
Cc1cc2c(cc1C)N1C(Cl)=C3CCCCC3=C(C#N)C1N2 (stereo not given),52.3 µM,–,–
NC(CSC(=O)c1ccccc1)C(=O)O (stereo not given),> 100 µM,–,–
O=C1C=CC(=O)c2c1c1c(c3c2C2c4ccccc4C3c3ccccc32)C2c3ccccc3C1c1ccccc12,49.5 µM,–,–
Nc1ccc2c(c1)Cc1cc(Cl)c(Cl)cc1-2,> 100 µM,4.14 µM,–
CCc1c2c(nc3ccc(O)cc13)-c1cc3c(c(=O)n1C2)COC(=O)[C@]3(O)CC,> 18.6 µM,0.0712 µM,–
O=C([O-])c1ccc2c(c1)-c1nc-2nc2[n-]c(nc3nc(nc4[n-]c(n1)c1ccc(C(=O)[O-])cc41)-c1ccc(C(=O)[O-])cc1-3)c1ccc(C(=O)[O-])cc21.[Gd+3].[K+],> 100 µM,> 100 µM,–
O=C1c2ccccc2-c2c1c1ccccc1c(=O)n2-c1cccnc1,> 100 µM,–,–
Cc1cc(S(=O)(=O)Nc2nc(N)nc(N(C)C)n2)c(S)cc1Cl,> 10 µM,–,–
CCNC(=S)NNC(=O)c1nsc2ccccc12,> 100 µM,–,–
CC[C@H]1C[C@@H](O)[C@@H]2[C@H](O)[C@H](O)CN2C1,> 100 µM,–,–
Cc1cn(CCOCCOC(=O)NC(CCCN=C(N)N)C(=O)O)c(=O)[nH]c1=O (stereo not given),> 100 µM,–,–
COc1ccc(-c2[nH]c(=O)n(C3OC(CO)C(O)C(O)C3O)c(=O)c2C#N)cc1 (stereo not given),> 100 µM,–,–
O=C(Cc1csc2nc(-c3ccc(Br)cc3)cn12)N/N=C/c1cc(Br)ccc1O,37 µM,5.24 µM,–
COc1ccc(C2=C(c3cn(C)c4ccccc34)C(=O)NC2=O)cc1,> 25 µM,> 25 µM,–
O=C(CC(=O)Nc1ccccc1Cl)NNC(c1cc(N=Nc2ccc(Br)cc2)ccc1O)P(O)O (stereo not given),7.96 µM,–,–
O=C1C[C@H](Sc2ccccc2)C2(OCCO2)[C@H]2ON3CCC[C@@H]3[C@@H]12,20.1 µM,–,–
COc1ccc2c(c1)N(CCO)C1=C(C(=O)OC1)C2c1cc(OC)c(OC)c(OC)c1 (stereo not given),> 50 µM,0.0428 µM,–
CC/C(CC(=O)CCC(=O)Nc1c(C)cccc1C)=N\NC(=O)NN,> 100 µM,–,–
CN(C)c1ccc2nc3ccc(=N)cc-3sc2c1,> 100 µM,23.3 µM,–

SMILES,TGI,GI50,outcome
CC1CC(c2ccc(Cl)cc2)=Nc2ccccc2S1 (stereo not given),> 100 µM,–,–
CCOC(=O)c1ccc2c(c1)c1c(C)c3ccncc3c(C)c1n2C,3.9 µM,0.731 µM,–
OCCNc1ncnc2nc[nH]c12,> 100 µM,–,–
COc1ccc(-c2cc(=O)c3c(O)c(OC)c(O)c(OC)c3o2)cc1OC,> 100 µM,–,–
CCCCCCCCCCCCCCCCP(=O)(OC)OC,30.9 µM,–,–
C=C(C)[C@@H]1CC[C@]2(CNCCO)CC[C@]3(C)[C@H](CC[C@@H]4[C@@]5(C)CCC(N)[C@@](C)(CO)[C@@H]5CC[C@]43C)[C@@H]12 (stereo not given in full),3.53 µM,1.79 µM,–
O=C1C=CC(=O)c2c(O)c(CO)c(CO)c(O)c21,3.03 µM,–,–
CSC1(C)CC2C(CC1N1CCCCC1)C2(C)C (stereo not given),> 100 µM,–,–
O=C1Nc2c(Cl)cc(Cl)cc2/C1=N/N=C/c1ccccc1O,48.8 µM,–,–
CCN(CC)c1ccc(N=O)cc1,6.02 µM,2.09 µM,–
COc1cc(/C=N/NC(=O)c2ccc(NC(C)=O)cc2OC)ccc1O,> 100 µM,–,–
CC(C)=CC(=O)OCC(=O)O[C@@H]1C[C@]2(C(C)C)O[C@@]1(C)[C@@H]1CC[C@@H](C)[C@H]1[C@@H]2OC(=O)/C=C/c1ccccc1,> 100 µM,> 64.6 µM,–
O=C1OCC2=C1C(c1cccc(F)c1)c1cc3c(cc1N2CCO)CCC3 (stereo not given),> 50 µM,0.368 µM,–
CCc1cccc(C(C)C)c1NC(=O)C(=O)C1C(=O)NC(=O)NC1=O,> 100 µM,–,–
Cc1[nH]c2c(C)cccc2c1C1Cc2ccccc2N1 (stereo not given),55.8 µM,–,–
CON(C)C(=O)CCCO,> 100 µM,–,–
O=P(O)(OP(=O)(O)c1ccccc1)c1ccccc1 (tested in a mixture with another compound),> 100 µM,–,–
Cc1ccccc1N=Nc1cc(C)c(N=Nc2c(O)ccc3ccccc23)cc1C,> 100 µM,–,–
CC(=O)OCC1CCC(=C2C(=O)OC(C)(C)OC2=O)N1 (stereo not given),> 100 µM,–,–
COc1cc(CC(C)C(C)Cc2ccc(O)c(OC)c2)ccc1O (stereo not given),50 µM and 28.2 µM,14.7 µM,–
COc1c(OCCCN2CCOCC2)ccc2c3n(c(=NC(=O)c4cnc(N)nc4)nc12)CCN3,1.18 µM and 1.31 µM and 1.81 µM,–,–
C/C(=N\NC(=S)NCCNC(=S)N/N=C(\C)c1ccccn1)c1ccccn1,45 µM,–,–
O=S(=O)(O)c1ccc(N=Nc2ccc(N=Nc3c(O)ccc4cc(S(=O)(=O)O)ccc34)cc2)cc1,> 100 µM,–,–
CC1(C)CCC(S(=O)(=O)c2ccc3c(c2)/C(=N\O)c2cc(S(=O)(=O)N4CCN(c5ccc(F)cc5O)CC4)ccc2-3)CC1,0.603 µM,0.235 µM,–

SMILES,TGI,GI50,outcome
CCOC(=O)C=C1CCC2(CC1)OCCO2,> 100 µM,–,–
CCCCC1=C(Br)C(=C(Br)Br)OC1=O,22 µM,–,–
Nc1ncnc2oc(-c3cccs3)nc12,> 100 µM,–,–
Cc1ccc2nc(C=Nc3ccccc3Cl)cc(C)c2c1,> 100 µM,–,–
COc1ccc(/C=C/C(=O)C(C)C)cc1,> 100 µM,–,–
CCNC(=O)CCC(C)[C@H]1CCC2C3C(C[C@H](OC(C)=O)[C@@]21C)[C@@]1(C)CCC2(C[C@H]1C[C@H]3OC(C)=O)OOC1(CCC(C)CC1)OO2 (stereo not given in full),> 100 µM and 71.2 µM,9 µM and 4.25 µM,–
CCN1CCN(c2cc(C)nc(N(CCCNc3ccnc4cc(Cl)ccc34)Cc3cccs3)n2)CC1,10.9 µM,2.85 µM,–
COc1cccc2c1C(=O)c1c(O)c3c(c(O)c1C2=O)CC(O)(C(O)CO)CC3OC1CC2C(OC3COCC(C#N)N32)C(C)O1 (stereo not given),< 0.01 µM,–,–
CC1=C(SCCC(=O)OCC(=O)NCCC[Te]c2ccccc2)C(=O)c2ccccc2C1=O,11 µM,3.05 µM,–
COc1cccc2c1C(=O)c1c(O)c3c(c(O)c1C2=O)C[C@@](O)(C(=O)CO)C[C@@H]3OC1CC(N)C(O)C(C)O1 (stereo not given in full),–,–,inactive
COc1nc(NC2OC(COC(C)=O)C(OC(C)=O)C(OC(C)=O)C2OC(C)=O)c(N=CC=Nc2c(NC3OC(COC(C)=O)C(OC(C)=O)C(OC(C)=O)C3OC(C)=O)nc(OC)n(C)c2=O)c(=O)n1C (stereo not given),> 100 µM,–,–
O=c1c2sc3nc(NCCN4CCCCC4)ncc3c2ncn1-c1ccccc1,> 100 µM,–,–
O=c1c2ccccc2nc(/C=C(\O)c2ccccc2)n1-c1ccccc1Cl,> 100 µM,–,–
CC12CCC(C(=O)n3c1nc1ccccc13)C(C)(C)O2 (stereo not given),> 100 µM,–,–
Cc1sccc1C(=S)Nc1ccc(Cl)c(/C=N/OC(C)(C)C)c1,> 100 µM,–,–
COc1cc2c(cc1O)N=C[C@@H]1C[C@@H](F)CN1C2=O,4.24 µM,0.976 µM,–
CCOC1CN(C)C(=Nc2cccc3ccccc23)S1 (stereo not given),> 10 µM,–,–
Cc1ccc(N(C)S(=O)(=O)c2ccc([N+](=O)[O-])cc2)cc1,> 100 µM,–,–
O=C(OC(CNc1c(C(=O)c2ccccc2)c(=O)n(Cc2ccccc2)c(=O)n1Cc1ccccc1)CN1CCOCC1)c1ccccc1 (stereo not given),> 100 µM,56.8 µM,–
O=C(Nc1cccc(C(F)(F)F)c1)C(=O)C(C(=O)c1ccc2ccccc2c1)C1OC(=O)c2ccccc21 (stereo not given),26.7 µM,–,–
CCOC(=O)C(=O)/C=C(\C)Nc1c(NC2OCC(OC(C)=O)C(OC(C)=O)C2OC(C)=O)nc(SC)[nH]c1=O (stereo not given),> 100 µM,–,–
COC(=O)CNC(=O)c1cc(C)cc2c1Oc1c(cc(C)cc1C(=O)NCC(=O)OC)S2,> 100 µM,–,–

# Reference: PubChem BioAssay (NCI)
